From the supplement of paper PMC7125110
± gives the standard error. This sample is rich in variants without activity.

B1: glmS ribozyme (parent)
chain: AUAAAAGCGCCAGAACUACAGAAAUGUAGUUGACGAGGAGGAGGUUUAUCGAAUUUUCGGCGGAUGCCUCCAAA

How the values were obtained:
Conditions in all cases: with glucosamine-6-phosphate
glucosamine-6-phosphate [1] = variants of: B1; assay: self-cleavage kobs at 40 uM GlcN6P; higher = faster cleavage; RNA array
Procedure, shortened: (§1)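 A hybridised Cy3 probe tracked barcoded ribozyme variants, transcribed in situ by E. coli RNA polymerase on sequenced MiSeq chips, at 37 °C. The variants received 40 μM to 10 mM glucosamine-6-phosphate in HEPES/KCl/Mg(OAc)2 buffer. kobs came from decay fits and kcat and KM from weighted Michaelis–Menten fits.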

glucosamine-6-phosphate [2] = variants of: B1; assay: kcat; higher = faster cleavage; RNA array
Procedure, shortened: as §1

glucosamine-6-phosphate [3] = variants of: B1; assay: self-cleavage kobs at 640 uM GlcN6P; higher = faster cleavage; RNA array
Procedure, shortened: as §1

glucosamine-6-phosphate [4] = variants of: B1; assay: self-cleavage kobs at 2500 uM GlcN6P; higher = faster cleavage; RNA array
Procedure, shortened: as §1

glucosamine-6-phosphate [5] = variants of: B1; assay: self-cleavage kobs at 10000 uM GlcN6P; higher = faster cleavage; RNA array
Procedure, shortened: as §1

glucosamine-6-phosphate [6] = variants of: B1; assay: self-cleavage kobs at 160 uM GlcN6P; higher = faster cleavage; RNA array
Procedure, shortened: as §1

Variant	self-cleavage kobs at 40 uM GlcN6P (glucosamine-6-phosphate [1])	kcat (glucosamine-6-phosphate [2])	self-cleavage kobs at 640 uM GlcN6P (glucosamine-6-phosphate [3])	self-cleavage kobs at 2500 uM GlcN6P (glucosamine-6-phosphate [4])	self-cleavage kobs at 10000 uM GlcN6P (glucosamine-6-phosphate [5])	self-cleavage kobs at 160 uM GlcN6P (glucosamine-6-phosphate [6])
A6C G29U G32A U45A G60A	< 1e-05 s⁻¹	–	–	–	–	–
C10A G37U	< 1e-05 s⁻¹	< 1e-05 s⁻¹	–	–	–	–
C10A A64C	–	< 1e-05 s⁻¹	< 1e-05 s⁻¹	< 1e-05 s⁻¹	< 1e-05 s⁻¹	–
C11G U55A	< 1e-05 s⁻¹	< 1e-05 s⁻¹	–	–	–	< 1e-05 s⁻¹
A6U G29U A39U G43U C61A C67U	< 1e-05 s⁻¹	–	–	–	< 1e-05 s⁻¹	–
A14C A15U G26U U30G U47G U57A	–	< 1e-05 s⁻¹	–	–	–	–
G32C U57G	–	< 1e-05 s⁻¹	–	–	–	< 1e-05 s⁻¹
G38A A48G	< 1e-05 s⁻¹	< 1e-05 s⁻¹	–	–	–	–
G7A A39U U56C G59A	< 1e-05 s⁻¹	–	–	–	< 1e-05 s⁻¹	–
U55G C61U	< 1e-05 s⁻¹	< 1e-05 s⁻¹	–	–	–	–
U2C C34G G38U C61A	–	< 1e-05 s⁻¹	–	–	–	–
A6C C58A	< 1e-05 s⁻¹	–	–	–	< 1e-05 s⁻¹	< 1e-05 s⁻¹
A6U G40U	< 1e-05 s⁻¹	–	–	–	–	–
A6G G51C G59U	< 1e-05 s⁻¹	–	–	–	–	–
A6G A15C A53G	< 1e-05 s⁻¹	–	–	6.25e-05 ± 2e-05 s⁻¹	–	–
A6C G37C G63A	< 1e-05 s⁻¹	–	–	–	< 1e-05 s⁻¹	–
A6C G59U	< 1e-05 s⁻¹	–	–	< 1e-05 s⁻¹	–	< 1e-05 s⁻¹
A1C U56G	0.000433 ± 9.4e-05 s⁻¹	–	–	–	–	–
U56G G62U	< 1e-05 s⁻¹	< 1e-05 s⁻¹	< 1e-05 s⁻¹	–	< 1e-05 s⁻¹	–
A6C U46C	< 1e-05 s⁻¹	–	< 1e-05 s⁻¹	–	–	< 1e-05 s⁻¹
A6U C11G A14C	< 1e-05 s⁻¹	–	< 1e-05 s⁻¹	–	< 1e-05 s⁻¹	< 1e-05 s⁻¹
G32C C61A	–	< 1e-05 s⁻¹	–	–	–	< 1e-05 s⁻¹
G60A C68U	–	< 1e-05 s⁻¹	–	–	–	< 1e-05 s⁻¹
G13C C68G	–	< 1e-05 s⁻¹	–	–	–	–
A6G A12U G37C	< 1e-05 s⁻¹	–	< 1e-05 s⁻¹	< 1e-05 s⁻¹	< 1e-05 s⁻¹	< 1e-05 s⁻¹

Variant	self-cleavage kobs at 40 uM GlcN6P (glucosamine-6-phosphate [1])	kcat (glucosamine-6-phosphate [2])	self-cleavage kobs at 640 uM GlcN6P (glucosamine-6-phosphate [3])	self-cleavage kobs at 2500 uM GlcN6P (glucosamine-6-phosphate [4])	self-cleavage kobs at 10000 uM GlcN6P (glucosamine-6-phosphate [5])	self-cleavage kobs at 160 uM GlcN6P (glucosamine-6-phosphate [6])
U31A G37U	–	< 1e-05 s⁻¹	–	–	< 1e-05 s⁻¹	–
U46A A64U	< 1e-05 s⁻¹	< 1e-05 s⁻¹	–	–	< 1e-05 s⁻¹	–
G35C C58G	< 1e-05 s⁻¹	< 1e-05 s⁻¹	< 1e-05 s⁻¹	–	< 1e-05 s⁻¹	< 1e-05 s⁻¹
C58G G62C	< 1e-05 s⁻¹	< 1e-05 s⁻¹	–	–	–	–
A48G C61G	–	< 1e-05 s⁻¹	–	–	< 1e-05 s⁻¹	–
A6G G40A	< 1e-05 s⁻¹	–	–	–	–	< 1e-05 s⁻¹
G43C C70A	< 1e-05 s⁻¹	< 1e-05 s⁻¹	< 1e-05 s⁻¹	–	< 1e-05 s⁻¹	–
G51C G60A	–	< 1e-05 s⁻¹	< 1e-05 s⁻¹	< 1e-05 s⁻¹	–	–
G37U U47C	–	< 1e-05 s⁻¹	–	–	–	< 1e-05 s⁻¹
G7U U56G	< 1e-05 s⁻¹	< 1e-05 s⁻¹	–	–	< 1e-05 s⁻¹	–
G32A A33C C70G	–	< 1e-05 s⁻¹	–	< 1e-05 s⁻¹	–	–
A6G G35A C67U U69A	< 1e-05 s⁻¹	–	< 1e-05 s⁻¹	< 1e-05 s⁻¹	< 1e-05 s⁻¹	< 1e-05 s⁻¹
C16G G38U	–	< 1e-05 s⁻¹	< 1e-05 s⁻¹	–	–	–
G38A G63U	–	< 1e-05 s⁻¹	–	–	–	< 1e-05 s⁻¹
G13U A48C	< 1e-05 s⁻¹	< 1e-05 s⁻¹	< 1e-05 s⁻¹	–	–	< 1e-05 s⁻¹
A6G A64U	< 1e-05 s⁻¹	–	< 1e-05 s⁻¹	–	< 1e-05 s⁻¹	< 1e-05 s⁻¹
A6G A12G A36U G43C	< 1e-05 s⁻¹	–	< 1e-05 s⁻¹	< 1e-05 s⁻¹	< 1e-05 s⁻¹	–
G38C	–	< 1e-05 s⁻¹	–	–	–	< 1e-05 s⁻¹
G38A	–	< 1e-05 s⁻¹	–	–	–	–
A36C G38C	–	< 1e-05 s⁻¹	–	–	< 1e-05 s⁻¹	–
U30A U49A	< 1e-05 s⁻¹	< 1e-05 s⁻¹	–	–	–	< 1e-05 s⁻¹
A6C G32A C68A	< 1e-05 s⁻¹	–	< 1e-05 s⁻¹	–	–	–
A6U C10U A15G G35A	< 1e-05 s⁻¹	–	–	–	< 1e-05 s⁻¹	–
A6U A33G U45C	< 1e-05 s⁻¹	–	–	< 1e-05 s⁻¹	< 1e-05 s⁻¹	–
A6G U30A	< 1e-05 s⁻¹	–	–	–	–	–
